Measured values published in the supplement of paper PMC8728848.
The list shows a part of the results.

Key:
Assay in all cases: glycan array binding signal (z-score within array); higher = stronger binding
Conditions in all cases: glycan notation: IUPAC condensed, linker removed
Fuc(a1-3)GlcNAc = molecular target: Fuc(a1-3)GlcNAc
In short: (§1)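 Negative Z-scores can be read as non-binding. The Z-score is calculated within each array and then averaged across arrays of one protein sequence at different concentrations or buffers and across linkers. Arrays, 3228 in all, were curated from the Consortium for Functional Glycomics database and kept only where the protein sequence was available.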

[1] = molecular target: Fuc(a1-3)[Gal(b1-4)]Glc6S
In short: as §1

[2] = molecular target: Fuc(a1-3)[Gal(b1-4)]GlcNAc
In short: as §1

[3] = molecular target: Fuc(a1-3)[Gal(b1-4)]GlcNAc(b1-2)Man
In short: as §1

[4] = molecular target: Fuc(a1-3)[Gal(b1-4)]GlcNAc(b1-2)Man(a1-3)[Fuc(a1-3)[Gal(b1-4)]GlcNAc(b1-2)Man(a1-6)]Man(b1-4)GlcNAc(b1-4)GlcNAc
In short: as §1

[5] = molecular target: Fuc(a1-3)[Gal(b1-4)]GlcNAc(b1-2)Man(a1-3)[Fuc(a1-3)[Gal(b1-4)]GlcNAc(b1-2)Man(a1-6)]Man(b1-4)GlcNAc(b1-4)[Fuc(a1-6)]GlcNAc
In short: as §1

[6] = molecular target: Fuc(a1-3)[Gal(b1-4)]GlcNAc(b1-3)Gal(b1-3)[Fuc(a1-4)]GlcNAc
In short: as §1

[7] = molecular target: Fuc(a1-3)[Gal(b1-4)]GlcNAc(b1-3)Gal(b1-4)[Fuc(a1-3)]GlcNAc
In short: as §1

[8] = molecular target: Fuc(a1-3)[Gal(b1-4)]GlcNAc(b1-3)Gal(b1-4)[Fuc(a1-3)]GlcNAc(b1-3)Gal(b1-4)[Fuc(a1-3)]GlcNAc
In short: as §1

[9] = molecular target: Fuc(a1-3)[Gal(b1-4)]GlcNAc(b1-3)GalNAc
In short: as §1

[10] = molecular target: Fuc(a1-3)[Gal(b1-4)]GlcNAc(b1-6)GalNAc
In short: as §1

[11] = molecular target: Fuc(a1-3)[Gal(b1-4)]GlcNAc(b1-6)[Gal(b1-3)GlcNAc(b1-3)]Gal(b1-4)Glc
In short: as §1

[12] = molecular target: Fuc(a1-3)[Gal(b1-4)]GlcNAc6S
In short: as §1

[13] = molecular target: Fuc(a1-3)[Gal3S(b1-4)]Glc
In short: as §1

[14] = molecular target: Fuc(a1-3)[Gal3S(b1-4)]GlcNAc
In short: as §1

[15] = molecular target: Fuc(a1-3)[Gal3S(b1-4)]GlcNAc6S
In short: as §1

[16] = molecular target: Fuc(a1-3)[GalNAc(b1-4)]GlcNAc
In short: as §1

[17] = molecular target: Fuc(a1-3)[GalNAc(b1-4)]GlcNAc6S
In short: as §1

Fuc(a1-4)GlcNAc = molecular target: Fuc(a1-4)GlcNAc
In short: as §1

Fuc(b1-3)GlcNAc = molecular target: Fuc(b1-3)GlcNAc
In short: as §1

Gal(a1-2)Gal = molecular target: Gal(a1-2)Gal
In short: as §1

Gal(a1-3)Gal = molecular target: Gal(a1-3)Gal
In short: as §1

Gal(a1-3)Gal(b1-3)GlcNAc = molecular target: Gal(a1-3)Gal(b1-3)GlcNAc
In short: as §1

[18] = molecular target: Gal(a1-3)Gal(b1-3)GlcNAc(b1-2)Man
In short: as §1

[19] = molecular target: Gal(a1-3)Gal(b1-3)GlcNAc(b1-2)Man(a1-3)[Gal(a1-3)Gal(b1-3)GlcNAc(b1-2)Man(a1-6)]Man(b1-4)GlcNAc(b1-4)GlcNAc
In short: as §1

[20] = molecular target: Gal(a1-3)Gal(b1-3)GlcNAc(b1-3)GalNAc
In short: as §1

[21] = molecular target: Gal(a1-3)Gal(b1-3)GlcNAc(b1-6)GalNAc
In short: as §1

[22] = molecular target: Gal(a1-3)Gal(b1-3)[Fuc(a1-4)]GlcNAc(b1-2)Man(a1-3)[Gal(a1-3)Gal(b1-3)[Fuc(a1-4)]GlcNAc(b1-2)Man(a1-6)]Man(b1-4)GlcNAc(b1-4)GlcNAc
In short: as §1

Gal(a1-3)Gal(b1-4)Glc = molecular target: Gal(a1-3)Gal(b1-4)Glc
In short: as §1

Gal(a1-3)Gal(b1-4)GlcNAc = molecular target: Gal(a1-3)Gal(b1-4)GlcNAc
In short: as §1

B1: GS13455A-bfa-343-25-343 (Bacteroides fragilis) (protein)
chain: KDEIQIVDQDTSWQMDNKYIEEDIREQLGIDPFTDLVYLGYYGNPYTQLEAINDLVNTTLVGKNELSFKVKVTKPYKEDIKVNLMKEDKLVTDFPEMAEGIPLFPSENCTFEGGVLKAGELETTVKLTLKDVEKLNNLSGYVMAIKLTMEGSHEHLAIARTRSSYFVKLNLSIRLDNIDSSNKKIEGKGFNKEISFKSDIRPDKLGSLNDGNFTANNWYTSNANNYLTIILPEKQSLKGFRLDTNTSPSGSYMLKSCRVMVETPDGNWVNHGVFDRKSMDGIAYISFKKPVECTKVRFENMMAFNGRFSVDVNEVTAFR
Which results are given for B1?
glycan array binding signal (z-score) (Fuc(a1-3)GlcNAc): 0.11; glycan array binding signal (z-score) [1]: -0.375; glycan array binding signal (z-score) [2]: 0.101; glycan array binding signal (z-score) [3]: -0.516; glycan array binding signal (z-score) [4]: -0.389; glycan array binding signal (z-score) [5]: -0.142; glycan array binding signal (z-score) [6]: -0.611; glycan array binding signal (z-score) [7]: 0.401; glycan array binding signal (z-score) [8]: -0.354; glycan array binding signal (z-score) [9]: -0.176; glycan array binding signal (z-score) [10]: -0.529; glycan array binding signal (z-score) [11]: 0.284; glycan array binding signal (z-score) [12]: 0.127; glycan array binding signal (z-score) [13]: -0.586; glycan array binding signal (z-score) [14]: 0.26; glycan array binding signal (z-score) [15]: 0.461; glycan array binding signal (z-score) [16]: 0.55; glycan array binding signal (z-score) [17]: -0.628; glycan array binding signal (z-score) (Fuc(a1-4)GlcNAc): 20.2; glycan array binding signal (z-score) (Fuc(b1-3)GlcNAc): 0.123; glycan array binding signal (z-score) (Gal(a1-2)Gal): -0.391; glycan array binding signal (z-score) (Gal(a1-3)Gal): 0.005; glycan array binding signal (z-score) (Gal(a1-3)Gal(b1-3)GlcNAc): 0.317; glycan array binding signal (z-score) [18]: 0.026; glycan array binding signal (z-score) [19]: -0.044; glycan array binding signal (z-score) [20]: -0.278; glycan array binding signal (z-score) [21]: -0.515; glycan array binding signal (z-score) [22]: 0.372; glycan array binding signal (z-score) (Gal(a1-3)Gal(b1-4)Glc): -0.29; glycan array binding signal (z-score) (Gal(a1-3)Gal(b1-4)GlcNAc): -0.51
